About 12,000 (3.5%) of roughly 340,000 compounds were called active. Inconclusive means that the source gave no clear call. Such entries were picked first, then a sample of the others. The call rests on the fitted dose curve; in most records, active means well fitted inhibition curve with a large enough effect; inconclusive means small, poorly fitted or top-dose-only effect, or another doubt; inactive means no such curve, though single readings can be large or run the other way. No potency is given beside an inconclusive call; the fits are too rough.
Assay: qHTS Assay for Inhibitors of Hepatitis C Virus (HCV)
Conditions: Huh7.5.1 HCVcc-Cre (HCVcc is cell-culture hepatitis C virus) infection, luciferase reporter, 44 h; series mostly up to 41.8 µM
Procedure, shortened: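 Seed cells (1,000/well) for 4 h; treat with compound and infect with HCVcc-Cre, moi about 0.5. Incubate 44 h, then detect luciferase activity.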
Potency means the concentration at half of the fitted maximal effect; tags describe the fitted curve by direction and shape.

Structure (SMILES) | Potency
COc1ccc(NC(=O)CSc2ccc(-c3sc(C)nc3C)nn2)cc1OC | inconclusive [inhibitor, single point]
CC(C)=CCc1c(O)cc(O)c2c1OC(c1ccc(O)cc1)CC2=O (stereo not drawn) | inconclusive [inhibitor, partial curve]
COc1ccc(CCNC(=O)Nc2cc(F)c(F)cc2Cl)cc1OC | inconclusive [inhibitor, single point]
CCN(C(=O)c1cn(C)c(=O)c2cc(OC)c(OC)cc12)c1cc(C)ccc1C | inactive
COc1cccc(-n2nnc3c(=O)n(CC(=O)N4CCCc5ccccc54)cnc32)c1 | inconclusive [inhibitor, single point]
O=C(Nc1ncc2c(n1)-c1ccccc1OC2)c1cccc([N+](=O)[O-])c1 | inconclusive [inhibitor, single point]
CC(C)(C)OC(=O)N1CCN(C(=O)c2ncn(Cc3ccccc3)c2C(=O)N2CCN(C(=O)OC(C)(C)C)CC2)CC1 | inactive
CCOC(=O)Cc1csc(NC(=O)CSc2cc(Cl)ccc2Cl)n1 | inactive
CC(C)c1ccc(/C=N/NC(=O)c2ccc(-n3cnnn3)cc2)cc1 | inconclusive [inhibitor, full curve]
Cc1cc(N2CCN(c3ccccn3)CC2)n2cc(-c3ccccc3)nc2n1 | inactive
CC1CN(C(=O)CCNC(=O)c2ccccc2Cl)CC(C)O1 (stereo not drawn) | inactive
CC(=O)/C(C(=N)N1CCN(Cc2ccccc2)CC1)=C(\C)O | inconclusive [inhibitor, single point]
Cc1ccc(C(=O)Nc2nc(-c3ccccn3)cs2)o1 | inconclusive [inhibitor, single point]
O=C(OCc1c(-c2ccccc2)ncc2ccccc12)N1CCOCC1 | inconclusive [inhibitor, single point]
Clc1ccc2c(N3CCOCC3)ccnc2c1 | inconclusive [inhibitor, single point]
CCCOc1ccc(/C=C/C(=O)NC2CCCCC2)cc1OC | inconclusive [inhibitor, single point]
COc1ccc(Cl)cc1NC(=O)c1ocnc1C | inconclusive [inhibitor, single point]
COc1c(C)cc(Br)cc1C(=O)Nc1ccc(Cc2ccncc2)cc1 | inconclusive [inhibitor, partial curve]
COc1ccccc1CNC(=O)C1CCN(S(=O)(=O)c2cccc([N+](=O)[O-])c2)CC1 | inconclusive [inhibitor, single point]
COC(=O)c1c(NC(=O)c2ccccc2OC)sc(C(=O)N2CCOCC2)c1C | inconclusive [inhibitor, single point]
O=C(c1ccc(Cl)c(S(=O)(=O)N2CCCCC2)c1)N1CCN(Cc2ccccc2)CC1 | inconclusive [inhibitor, partial curve]
CC(C)(C)C1=CC(=O)C(=O)C(C(C)(C)C)=C1 | inconclusive [inhibitor, single point]

Structure (SMILES) | Potency
Cc1ccc(C(=O)c2sc(Nc3ccccc3)c(C#N)c2N)cc1 | inconclusive [inhibitor, partial curve]
CCS(=O)(=O)Nc1ccc(C2=NN(C(=O)c3ccco3)C(c3ccc(Cl)o3)C2)cc1 (stereo not drawn) | active: 22.4 µM
O=C(CSc1nnnn1-c1ccc(O)cc1)Nc1cccc(S(=O)(=O)N2CCCC2)c1 | inconclusive [inhibitor, single point]
COc1ccc(S(=O)(=O)N2CCc3ccccc32)cc1[N+](=O)[O-] | inconclusive [inhibitor, single point]
NC(=O)c1ncn([C@@H]2O[C@H](CN=C3NS(=O)(=O)c4ccccc43)[C@@H](O)[C@H]2O)n1 | inactive
CCCC(NC(=O)c1ccc(Br)o1)c1nc2ccccc2[nH]1 (stereo not drawn) | inconclusive [inhibitor, partial curve]
CCN(Cc1ccccc1)S(=O)(=O)c1ccc(C(=O)Nc2nnc(C)o2)cc1 | inconclusive [inhibitor, single point]
O=c1c(Cc2c(F)cccc2Cl)c(O)ccn1Cc1ccc2c(c1)OCO2 | inconclusive [inhibitor, partial curve]
CCc1ccc(N(C(=O)c2snc(C(N)=O)c2N)C(C(=O)NC2CCCC2)c2ccncc2)cc1 (stereo not drawn) | inconclusive [inhibitor, single point]
COc1cccc(C2C(=O)N(C3CCCCC3)CC(=O)N2Cc2ccc(F)cc2)c1 (stereo not drawn) | inconclusive [inhibitor, single point]
Cc1ccsc1C(=O)NNC(=O)c1ccncc1 | inconclusive [inhibitor, single point]
O=C(c1c[nH]c2ccccc12)C(F)(F)F | inconclusive [inhibitor, single point]
Cc1ccc(NCCC(=O)c2ccc(Br)cc2)cc1 | inactive
O=C(NCC(c1cccs1)N1CCOCC1)c1ccc(OCc2ccccc2)cc1 (stereo not drawn) | inconclusive [inhibitor, partial curve]
COc1cccc(NC(=O)CSc2nc3c(c(=O)n2C)SC(C)C3)c1 (stereo not drawn) | inconclusive [inhibitor, partial curve, poor fit]
CCc1ccc(NC(=O)c2ccc(F)c(S(=O)(=O)NCC3COc4ccccc4O3)c2)cc1 (stereo not drawn) | inconclusive [inhibitor, full curve]
CCCCSC1=C(C#N)C(c2ccccc2C)CC(=O)N1 (stereo not drawn) | inactive
CCCCN(CC)C(=O)c1cc2c(=O)[nH]c3ccc(C)cc3c2s1 | inconclusive [inhibitor, single point]
Nc1nc(NCCCN2CCOCC2)nc(Nc2ccccc2)c1[N+](=O)[O-] | inactive
Cc1ccc(NC(=O)COC(=O)C2=NN(c3ccccc3)C(=O)CC2)c(Br)c1 | inactive
CCOc1cccc(C(=O)Nc2cccc(C(=O)NC(C)(C)C)c2)c1 | inconclusive [inhibitor, partial curve]
